Reference: publication PMC4336329 (PLoS ONE, 2015)
In all, about 310,000 compounds went through this assay and about 14,000 (4.5%) showed an effect of 50% or more. The effect is printed as a negative number. The list shows a part of the results.

target: human ether-à-go-go-related gene (hERG) potassium channel (human, UniProt Q12809); experiment: primary screen, population patch clamp on CHO cells stably expressing hERG
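Note: peak tail current of the secondary pulse compared with the same well before compound.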

Chain of human ether-à-go-go-related gene (hERG) potassium channel (Q12809 whole entry, looked up): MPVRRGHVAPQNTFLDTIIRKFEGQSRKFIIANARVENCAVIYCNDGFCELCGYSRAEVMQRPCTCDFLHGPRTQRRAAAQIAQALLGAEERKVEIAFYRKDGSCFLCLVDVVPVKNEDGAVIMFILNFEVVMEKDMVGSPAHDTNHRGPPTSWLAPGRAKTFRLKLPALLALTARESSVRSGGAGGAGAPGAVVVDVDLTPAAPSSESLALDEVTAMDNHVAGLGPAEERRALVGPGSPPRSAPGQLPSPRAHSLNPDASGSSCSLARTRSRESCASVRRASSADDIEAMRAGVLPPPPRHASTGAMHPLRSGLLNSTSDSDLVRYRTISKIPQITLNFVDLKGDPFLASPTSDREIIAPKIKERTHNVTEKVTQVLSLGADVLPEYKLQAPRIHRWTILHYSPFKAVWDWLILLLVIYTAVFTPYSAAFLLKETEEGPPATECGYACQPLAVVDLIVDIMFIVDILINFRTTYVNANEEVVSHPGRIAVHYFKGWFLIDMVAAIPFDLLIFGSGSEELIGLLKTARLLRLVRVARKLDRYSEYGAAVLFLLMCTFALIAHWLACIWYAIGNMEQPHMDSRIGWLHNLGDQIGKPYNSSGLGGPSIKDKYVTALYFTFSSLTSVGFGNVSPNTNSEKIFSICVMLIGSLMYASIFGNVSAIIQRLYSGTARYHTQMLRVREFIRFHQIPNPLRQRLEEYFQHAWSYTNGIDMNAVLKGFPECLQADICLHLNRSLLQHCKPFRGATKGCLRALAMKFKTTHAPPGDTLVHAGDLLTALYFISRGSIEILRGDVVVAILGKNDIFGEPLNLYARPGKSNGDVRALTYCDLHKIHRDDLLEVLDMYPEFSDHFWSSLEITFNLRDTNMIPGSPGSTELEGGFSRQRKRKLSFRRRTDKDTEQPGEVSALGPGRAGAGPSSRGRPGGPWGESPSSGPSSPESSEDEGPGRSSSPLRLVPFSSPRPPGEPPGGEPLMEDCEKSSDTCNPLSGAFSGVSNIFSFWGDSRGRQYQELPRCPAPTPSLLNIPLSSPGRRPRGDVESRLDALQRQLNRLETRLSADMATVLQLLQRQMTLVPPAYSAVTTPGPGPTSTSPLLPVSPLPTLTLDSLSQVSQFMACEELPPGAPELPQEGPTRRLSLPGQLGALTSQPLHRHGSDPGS

| SMILES | hERG current change (%, negative = inhibition) at 10uM [%] |
| --- | --- |
| Cc1c(NC(=O)CSc2n[nH]c(=O)n2-c2ccccc2)c(=O)n(-c2ccccc2)n1C | 16.9 |
| CCOC(=O)c1[nH]c(C)c(C(=O)N2CCc3c([nH]c4ccccc34)C2c2ccccn2)c1C (stereo not shown) | -0.347 |
| COc1cccc(CC(=O)Nc2cc(S(=O)(=O)N3CCOCC3)ccc2N2CCN(C)CC2)c1 | -36.1 |
| O=C(NC(=S)Nn1cnc2c(cnn2-c2ccccc2)c1=O)c1ccc(Cl)cc1 | 3.9 |
| CC1CCCCC1NC(=O)C1CC(=O)N(Cc2ccccc2)C1 (stereo not shown) | 11.1 |
| N/C(=N\OC(=O)Nc1ccccc1)c1ncc([N+](=O)[O-])s1 | -2.31 |
| CSc1nc(Cl)c(Cc2ccc(OC(C)C)cc2)c(N2CCOCC2)n1 | -8.81 |
| Cc1nn(-c2ccccc2)c(C)c1C(=O)OCC(=O)N1CC(=O)Nc2ccccc21 | 1.89 |
| O=C(COC(=O)/C=C/c1ccc(F)cc1)NCc1ccco1 | 1.28 |
| Cc1oc(-c2ccc(Cl)cc2)nc1CS(=O)CC(=O)NCCN1CCCCCC1 (stereo not shown) | -39.4 |
| CCn1c(Oc2ccccc2C)nc2c1c(=O)n(C)c(=O)n2C | 5.49 |
| CCN1CCN(C(=O)c2ccc(N3CC4CC(C3)c3cccc(=O)n3C4)c(NC(=O)c3cc(OC)cc(OC)c3)c2)CC1 (stereo not shown) | 15.4 |
| CCn1ccc(C(=O)NC2=C(C#N)CCC2)n1 | 23.5 |
| CCc1cc(Cn2nc(-c3ccccc3)cc2C(=O)NCC2CC2)on1 | -51.8 |
| CCN(CC(=O)N1CCOCC1)S(=O)(=O)c1ccc2ccccc2c1 | 11.1 |
| COCC1CCCN(C(=O)c2ccc3oc(CCCc4ccccc4)nc3c2)C1 (stereo not shown) | -16.2 |
| N#Cc1c(C#N)c(O)c2ccccc2c1O | 18.9 |
| Nc1nnn(CC(=O)N/N=C/c2cccc(Cl)c2)n1 | 4.76 |
| CC1(C)CC(=O)C=C(Nc2ccc3c(c2)OCCO3)C1 | 17.7 |
| CC(C)(C)n1nnnc1C(c1cccs1)N1CCN(c2ccccc2)CC1 (stereo not shown) | -10.5 |
| COc1cccc(CN2CCN(S(=O)(=O)c3ccc(NC(C)=O)cc3)CC2)c1OC.O=C(O)C(=O)O | 1.45 |
| COc1ccccc1CC(=O)Nc1ccc(-c2noc(COc3cccc(C)c3C)n2)cc1 | 17.4 |
| O=C(N/C(=C\c1ccc(F)cc1)C(=O)N1CCCCCC1)c1ccccc1 | -11.6 |
| Cc1csc2ncnc(N3CCN(S(=O)(=O)c4cccc(C(F)(F)F)c4)CC3)c12 | -2.6 |
| COc1ccc(CC(=O)Oc2ccccc2[N+](=O)[O-])cc1 | 16.6 |
| Cc1c(NC(=O)C(C)OC(=O)CCc2ccccc2)c(=O)n(-c2ccccc2)n1C (stereo not shown) | 11.3 |
| CC1=NN(c2nc(-c3ccc(C)cc3)cs2)C(=O)C1N=Nc1cccc(C)c1 (stereo not shown) | 10.6 |
| O=C(CCn1c(=O)oc2ccccc21)Nc1nc2ccccc2s1 | -41.4 |

| SMILES | hERG current change (%, negative = inhibition) at 10uM [%] |
| --- | --- |
| O=C1c2ccccc2C2(c3ccccc3)NCCN12 (stereo not shown) | 5.86 |
| CC(C)CC1Nc2ccc(C(=O)NCCCN3CCCCC3C)cc2NC1=O (stereo not shown) | 3.4 |
| COc1ccc(C(=O)NCc2nnc(SCC(=O)Nc3ccccc3F)o2)cc1 | 0.675 |
| NC1=NC2=C(CCCC2)C2(CCCCC2)S1 | -23.2 |
| Cc1ccc2c(c1)cc1c(=O)n(CC(=O)N3CCCC3)nc(C)n12 | 12.3 |
| COc1ccc(-n2c(=O)c3c4c(sc3n(CC(N)=O)c2=O)CCCCC4)cc1 | 8.5 |
| CCOC(=O)c1cnn(-c2ccccc2)c1-n1cccc1C(=O)C(=O)Nc1ccc(OC)cc1 | 11.8 |
| O=C(COC(=O)CCC(=O)c1cccs1)NCc1ccccc1 | 33.1 |
| COc1ccccc1NS(=O)(=O)c1cc(NC(=O)c2cc3ccccc3oc2=O)ccc1C | 8.21 |
| CC(C)N1CC(C(=O)Nc2cccc([N+](=O)[O-])c2)CC1=O (stereo not shown) | -5.14 |
| COc1cccc(N2CCN(CC(=O)Nc3ccnn3C3CCCC3)CC2)c1 | -3.2 |
| Cc1ccc(S(=O)(=O)CCC(=O)OCc2cc(C)ccc2C)cc1 | 4.14 |
| O=C(COC(=O)Cc1cccc(C(F)(F)F)c1)Nc1ccc2c(c1)OCCO2 | 13.2 |
| CN1CCNC(=O)C1CC(=O)NCCC1=CCCCC1 (stereo not shown) | 18.2 |
| CCOC(=O)C1CCN(CCC(=O)Nc2cccc(C)c2)CC1.Cl | -66.8 |
| COc1ccc(S(=O)(=O)N2CCN(c3ccc(F)cc3)CC2)cc1C(=O)N1CCOCC1 | 5.87 |
| CCCCn1c(O)c(C(C)=Nc2cccc(C(=O)O)c2)c(=O)[nH]c1=O | -14.4 |
| O=C(CN1C(=O)c2cccc3cccc1c23)N1CCN(c2cccc(Cl)c2)CC1 | -9.66 |
| CC(=O)c1cccc(NC(=O)c2ccc3c(c2)C(=O)N(Cc2cccnc2)C3=O)c1 | -9.85 |
| COc1ccc2cc(OCC(=O)NNC(=O)Nc3ccc(C(C)=O)cc3)ccc2c1 | 9.54 |
| CC1(C)O[C@@H]1COc1c2ccoc2cc2oc(=O)ccc12 | -19.4 |
| CN(c1ccccc1C(=O)NCc1ccccn1)S(C)(=O)=O | 9.24 |
| CNC(=O)c1c(NC(=O)c2ccco2)sc(C)c1C | 1.42 |
| CCN(CC)S(=O)(=O)c1ccc(/C=C/C(=O)NC2CCCCC2)cc1 | 5.02 |
| CC(C)CCN(C(=S)Nc1cccc(F)c1)C(C)c1cccs1 (stereo not shown) | 3.83 |
| C/C(=N\NC(=O)c1ccoc1C)c1cccc2ccccc12 | 19 |
| Cc1cc(Cn2nc(-c3ccccc3C)cc2C(=O)O)on1 | 17 |
